# From PubChem BioAssay AID1963319 (National Center for Advancing Translational Sciences (NCATS), 2024)
# In all, about 1,300 compounds went through this assay and about 120 (9.2%) were called active. The inconclusive results got no clear call from the source; some entries with a clear call stand among them for comparison. The call rests on the fitted dose curve; in most records, active means well fitted activation curve with a large enough effect; inconclusive means small, poorly fitted or top-dose-only effect; inactive means flat fitted curve, though single readings scatter. Where the call is inconclusive, the potency comes from a doubtful curve fit.
# Target: Luciferin 4-monooxygenase (Photinus pyralis) (UniProt P08659)
# Sequence of UniProt P08659 (P08659 whole entry, looked up): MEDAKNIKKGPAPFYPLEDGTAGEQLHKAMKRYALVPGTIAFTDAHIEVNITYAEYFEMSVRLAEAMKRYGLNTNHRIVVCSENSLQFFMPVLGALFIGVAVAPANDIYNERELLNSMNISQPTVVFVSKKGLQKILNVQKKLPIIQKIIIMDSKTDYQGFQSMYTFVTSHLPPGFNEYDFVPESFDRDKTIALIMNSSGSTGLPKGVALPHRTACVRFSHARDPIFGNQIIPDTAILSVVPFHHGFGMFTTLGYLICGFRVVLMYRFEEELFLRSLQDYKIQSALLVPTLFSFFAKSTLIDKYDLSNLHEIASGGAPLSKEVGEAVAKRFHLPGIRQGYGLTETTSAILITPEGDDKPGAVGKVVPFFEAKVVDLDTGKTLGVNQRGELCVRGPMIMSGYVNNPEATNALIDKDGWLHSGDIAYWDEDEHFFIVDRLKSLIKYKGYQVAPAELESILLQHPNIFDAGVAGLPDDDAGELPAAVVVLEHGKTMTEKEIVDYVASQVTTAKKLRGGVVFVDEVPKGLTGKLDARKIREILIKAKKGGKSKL
# Test: Firefly luciferase (FLuc-C-HiBiT) SDR gain of signal screen - plus ATP;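 further: signal reports ligand binding via conformational change of the enzyme rather than luciferase catalysis; nearly all actives have a fitted effect of over 55% in size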
# Conditions: purified FLuc-C-HiBiT + ATP, HiBiT complementation luminescence; series mostly up to 32.7 µM
# Method in brief: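 Gain-of-signal SDR format with ATP present (10 uM): tagged luciferase at 10 nM was preincubated with compounds for more than 30 min, then detection reagent added and luminescence captured by CCD imager after 5-10 min.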
# Potency means the concentration at half of the fitted maximal effect; tags describe the fitted curve by direction and shape.
row,SMILES,Potency
1,Cc1ccc(-n2ncc3c(N(C)Cc4ccccc4)ncnc32)cc1,"inconclusive: 11.1 µM [activator, partial curve]"
2,CCCCCc1nn2cc(-c3ccccc3)nc2s1,"inconclusive: 2.79 µM [activator, partial curve]"
3,O=C1c2cnc(-c3ccccc3)nc2OCCN1Cc1ccccc1,inactive
4,CN(C)c1ccc(-c2noc([C@@H]3CCCN3Cc3cnc4ccccc4c3)n2)cn1,inactive
5,Clc1cccc(Nc2cc3c(cn2)CN(Cc2cccnc2)CCN3)c1,"inconclusive: 28.6 µM [activator, partial curve, poor fit]"
6,COc1ccc(NC(=O)Nc2ccc(C)n(CC(=O)O)c2=O)cc1,"inconclusive: 11.1 µM [activator, partial curve]"
7,CCc1ccc(NC(=O)c2cc3ccccn3n2)cc1,"inconclusive: 4.42 µM [activator, full curve]"
8,Cc1nc2cc(-c3cccc(F)c3)nn2c(C)c1CCC(=O)NC1CCCCC1,"inconclusive: 12.4 µM [activator, partial curve, poor fit]"
9,CCC(=O)Nc1cnc(-c2ccc(C)cc2)nc1,"inconclusive: 12.4 µM [activator, partial curve]"
10,CCOc1ccc(NC(=O)Nc2cccc(C(=O)O)c2)cc1,active: 0.007 µM
11,CN(Cc1ccco1)C(=O)c1cccc2c1CCN2C(=O)Nc1ccccc1,active: 0.279 µM
12,COc1cccc(-c2cc3c(=O)n(CCNC(=O)c4ccccc4Cl)ccn3n2)c1,inactive
13,O=C(O)COCC(=O)N[C@H]1CCN2C(=O)c3cc(/C=C/c4ccccc4)ccc3NC(=O)[C@H]12,"inconclusive: 14 µM [activator, partial curve, poor fit]"
14,Clc1ccc2c(c1)-n1cc(-c3ccccc3)nc1CO2,inactive
15,Cc1ccc(-n2ncc3c(N4CCC(Cc5ccccc5)CC4)ncnc32)cc1,inactive
16,c1ccc(CNc2cc(-c3cc(N4CCCCC4)ncn3)c3cc[nH]c3n2)nc1,inactive
17,Cc1ccc2nc(-c3ccc(NC(=O)COc4ccc(Cl)c(C)c4)cc3)sc2c1,inactive
18,Cc1ccc(N2CCN(c3nc(C(=O)O)cs3)CC2)cc1,"inconclusive: 1.57 µM [activator, full curve]"
19,Fc1ccccc1-c1nc(-c2ccccc2)no1,"inconclusive: 11.1 µM [activator, partial curve]"
20,CCOc1ccc(-c2cc3c(=O)n(CCNC(=O)c4cccc(N(C)C)c4)ccn3n2)cc1,"inconclusive: 14 µM [activator, partial curve]"
21,Cc1ccc2oc(-c3ccc(C)c(NC(=O)/C=C/c4ccc(Cl)cc4)c3)nc2c1,inactive
